Laboratory results published in PubChem BioAssay AID1240 (Sanford-Burnham Center for Chemical Genomics, 2008).
Hit rate of the full screen: of about 50,000 compounds, about 800 (1.6%) showed an effect of 50% or more. The list shows a part of the results.

What follows are compounds tested against Bcl-2-like protein 10 (Homo sapiens) (UniProt Q9HD36) (assay: TR3 peptide-Bcl-B binding displacers, biochemical primary FP assay, phenotype converters (AID 1240;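 further: 0% = Bcl-B with tracer peptide and DMSO and 100% = tracer peptide lacking Bcl-B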)). Conditions: GST-Bcl-B / FITC-TR3 peptide fluorescence polarization; stronger effect = higher value; compound at 3.75 mg/L.
UniProt Q9HD36, sequence (Q9HD36 whole entry, looked up): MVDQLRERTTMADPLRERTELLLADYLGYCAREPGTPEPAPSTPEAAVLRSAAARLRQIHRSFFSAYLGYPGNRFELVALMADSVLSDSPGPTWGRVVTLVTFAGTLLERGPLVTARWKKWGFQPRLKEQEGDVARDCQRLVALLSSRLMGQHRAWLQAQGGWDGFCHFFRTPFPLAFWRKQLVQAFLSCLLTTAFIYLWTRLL

SMILES | displacement [%]
O=C(Nc1cccc(NC(=O)c2ccccc2Cl)c1)c1ccc(-c2ccc(Br)cc2)o1 | 57.3
COc1ccc(C(=O)Nc2ccc([N+](=O)[O-])cn2)cc1 | 0.3
O=C(/C=C/c1ccc(-c2ccccc2[N+](=O)[O-])o1)c1ccc(F)cc1 | 16.8
O=C(NN1C(=O)CSC1=S)c1ccccc1Cl | -9.7
COC(=O)CCN1C(=O)/C(=C\C=C\c2ccccc2)SC1=S | -150
CCC(CC)C(=O)N1CCN(c2cccc(Cl)c2)CC1 | 9.4
CC1=C(C#N)c2nc(N)c(C#N)c(C)c2/C1=C\c1ccc(C)o1 | -4.4
Cc1cc(C)nc(NC(N)=NC(C)(C)C)n1 | 8.3
COc1ccc(/C=N/OCC(=O)N2CCN(C(c3ccccc3)c3ccccc3)CC2)cc1OC | 0
CCOC(=O)c1c(-c2ccccc2)oc2ccc(OCC(=O)c3ccc(OC)cc3)cc12 | 13.1
CC(=O)N1CCN(CC(C)(C)NS(=O)(=O)c2ccc(Cl)cc2)CC1 | 0.7
COC(C(=O)NNC(=O)c1cccc(Cl)c1)c1ccccc1 (stereo not given) | -5.9
Cc1c(C(=O)O/N=C(\N)c2ccc(Cl)cc2)cccc1[N+](=O)[O-] | 2.7
O=C1NCC(COc2ccc([N+](=O)[O-])cc2)O1 (stereo not given) | 8.7
CC1CN(C(=O)C2(C)CCCCC2)c2ccccc21 (stereo not given) | 6.6
COc1ccc(Cc2noc(-c3ccccc3C)n2)cc1 | -6.7
O=c1n(Cc2ccc(Cl)cc2)c2cc([N+](=O)[O-])c([N+](=O)[O-])cc2n1Cc1ccc(Cl)cc1 | 5.7
CS(=O)(=O)N1CCN(c2ccc([N+](=O)[O-])c3ncccc23)CC1 | -8
CC1=NN(c2ccc(C)c(Cl)c2)C(=O)C1 | 10.8
CCNC(=S)NNC(=O)CSc1nc2ccccc2n1Cc1ccccc1 | -29.3
O=C(NCCCCCCNC(=O)c1ccc(CN2CCOCC2)cc1)c1ccc(CN2CCOCC2)cc1 | 0.8
Cc1c(OCc2ccccc2)ccc2c3c(c(=O)oc12)CCCC3 | 1.9

SMILES | displacement [%]
CCCOc1cccc(-c2nnc(N)s2)c1 | 3.5
COc1ccc(C2=C(NCCc3ccc(S(N)(=O)=O)cc3)c3ccccc3C2=O)cc1 | 13
CCOC(=O)c1c(NC(=O)CC2Nc3cc(C)c(C)cc3NC2=O)sc2c1CCCC2 (stereo not given) | 48.8
Cc1cc2c(cc1C)NC(c1ccsc1)C1=C(CC(C)(C)CC1=O)N2 (stereo not given) | 4.5
C=CCOC(=O)C1=C(C)NC(C)=C(C(=O)OCC=C)C1/C=C/c1ccccc1 | 15.6
O=C(O)CCn1c(O)c(C2=c3cc([N+](=O)[O-])ccc3=NC2=O)sc1=S | 15.8
N#C/C(=C\c1c[nH]c2ccccc12)C(=O)Nc1ccc(F)cc1 | 15.3
O=C1c2ccccc2C(=O)N1CCc1nc2ccccc2c(=O)n1-c1nccs1 | 11.6
O=C(Nc1ccc2oc(-c3ccccc3F)nc2c1)c1cccc([N+](=O)[O-])c1 | -3.1
COc1ccc(/C=C/C(=O)n2nnc3ccccc32)cc1 | -5.7
Brc1ccc(OCCCCN2CCOCC2)cc1 | 13.2
COC(=O)C12CC3CC(CC(C(=O)OC)(C1)C31SCCS1)C21SCCS1 | -5.8
COc1ccc(NC(=O)Cc2ccc(OC)c(OC)c2)c([N+](=O)[O-])c1 | -72.8
Cc1cccc(N2C(=O)/C(=C/c3ccc(-c4cccc(Cl)c4)o3)SC2=S)c1 | 7.5
COc1ccc(N(CC(=O)NCc2ccccc2)S(C)(=O)=O)cc1 | 13.1
C=CCN1C(=O)/C(=C/c2cc([N+](=O)[O-])ccc2OC)SC1=S | -1.8
CCOC(=O)c1c(NC(=O)c2c(-c3ccccc3)noc2C)sc2c1CCC(CC)C2 (stereo not given) | -4.2
COc1ccc(-c2nn(-c3ccccc3)cc2C=O)cc1[N+](=O)[O-] | -1.7
O=S(=O)(c1ccccc1)N1CCN(Cc2ccccc2F)CC1 | 1.5
CC(=O)Nc1ccc(S(=O)(=O)/N=C2/NC(=O)CS2)cc1 | -3.6
Cn1c(=O)c2cc(C#N)c(N)nc2n(C)c1=O | -4.4
CN(C)c1nccc(N(Cc2ccccc2)Cc2ccccc2)c1C#N | 2.9

SMILES | displacement [%]
O=C(c1ccccc1F)N1CCN(Cc2ccc(F)cc2)CC1 | -9.1
COc1ccc(C(=O)N/N=C/c2ccncc2)cc1OC | 0
O=C(NCc1cccnc1)c1ccc2ccccc2c1 | 2.2
COC(=O)C1=C(C)N(c2cc(C)cc(C)c2)/C(=C\c2sccc2C)C1=O | 27
Cc1cc(C)nc(SCCCCSc2nc(C)cc(C)n2)n1 | 1.1
Cc1occc1-c1nc(-c2ccccc2)no1 | 0.8
O=C(Cn1nnc(-c2ccccc2)n1)Nc1cccc([N+](=O)[O-])c1 | -5.4
CCCSc1nc2sc3c(c2c(=O)n1-c1ccc(C)cc1)CCN(Cc1ccccc1)C3 | -4.4
COc1cc(C2C3=C(CC(C)(C)CC3=O)NC3=C2C(=O)CC(C)(C)C3)ccc1OCc1ccc(Cl)cc1 | -8
CC1=CCC(/C=N\Nc2nnc3c(n2)[nH]c2ccccc23)CC1 (stereo not given) | 19.9
CCOC(=O)C1(C)/C(=N\Nc2ccccc2OC)C(=O)C(=O)N1c1ccccc1 (stereo not given) | -12
COc1ccc(CCNC(=O)COc2ccc(Br)cc2)cc1OC | -11
COc1cc(/C=N/NC(=O)C(=O)N2CCCC2)ccc1O | -4.6
COc1cccc(NC(=O)c2ccc3ccccc3n2)c1 | 8.4
CCc1ccccc1N(CC(=O)Nc1ccc2ccccc2c1)S(C)(=O)=O | 1.7
Cc1occc1C(=O)N/N=C/c1ccc[nH]1 | -14.1
O=[N+]([O-])c1ccccc1S(=O)(=O)Nc1ccccc1 | 10.4
CNC(=O)/C(=C/c1ccccc1)NC(=O)c1ccccc1 | -1.7
Cc1cccc(OCC(=O)Nc2cccnc2)c1 | 8.7
COc1ccc(C(=O)Nc2ccc(S(=O)(=O)NC(C)=O)cc2)cc1OC | 10.4
CCc1nnc(NS(=O)(=O)c2ccc(NC(=S)NC(=O)/C=C/c3ccc(C(C)C)cc3)cc2)s1 | 15.4
NC(=O)c1ccc(NC(=O)c2ccc3ccccc3c2)cc1 | -1.7

SMILES | displacement [%]
Cc1cc(C)c2cccc(NC(=S)NC(=O)c3cccc([N+](=O)[O-])c3)c2n1 | 9.6
COc1cc(/C=N/NC(=O)COc2ccccc2[N+](=O)[O-])ccc1OCc1ccccc1 | 1.1
CCCOC(=O)c1c(-c2ccc(OC)c(OC)c2)csc1N | 7.1
CC1(C)CC(=O)C(C=NCCN2CCN(C(=O)CC3CCCC3)CC2)=C(O)C1 | -13.3
COc1ccc2oc(=O)c(C(=O)NCCC3=CCCCC3)cc2c1 | -8.9
Cc1cccc(NC(=O)c2ccc(-c3ccccc3)cc2)c1 | 14.5
O=C1NC(=S)N(c2ccc(F)cc2)C(=O)C1=Cc1ccc([N+](=O)[O-])s1 | 28.4
Cc1ccc(N[C@@H]2C[C@H](O)[C@@H](CO)O2)cc1C | 1.2
O=C(O)CSc1nnc(-c2cccs2)n1-c1ccccc1 | 8.6
Cc1cc(C(F)(F)F)c(C#N)c(SCC#N)n1 | -10.2
Cc1ccc(SC2CC(=O)N(c3ccccc3C(F)(F)F)C2=O)cc1 (stereo not given) | 1.6
CCc1nc2ccccc2n1CC(O)COC1CCCCC1 (stereo not given) | -10.7
COC(=O)c1cc(NC(=O)c2ccc(-c3ccc([N+](=O)[O-])cc3)o2)cc(C(=O)OC)c1 | 26.6
COc1ccc(OCC(=O)N2c3ccc(C)cc3-c3c(ssc3=S)C2(C)C)cc1 | 7.5
CC(C)(C)NCCCCOc1c(Cl)cccc1Cl | 5.8
Nc1sc2c(c1C(=O)Nc1ccccc1)CCCC2 | 1.9
O=S(=O)(c1ccc(Cl)cc1)N1CCN(C2CC3CCC2C3)CC1 (stereo not given) | 6.7
O=C(c1ccc(Cl)cc1)N1CCN(c2ccc([N+](=O)[O-])cc2C(F)(F)F)CC1 | -1.2
N#C/C(=N/Nc1cccc(C(F)(F)F)c1)c1nc(-c2ccccc2)cs1 | -4.4
CC(=O)C1=C(O)C(=O)N(CC2CCCO2)C1c1cccc(F)c1 (stereo not given) | -0.7
O=C(/C=C\c1cccs1)c1cccc([N+](=O)[O-])c1 | 11.5
Cc1cc(C=O)c(C)n1-c1ccc([N+](=O)[O-])cc1 | 10.7

SMILES | displacement [%]
O=C(Nc1ccccc1C(=O)N1CCOCC1)c1cccc(F)c1 | -6.1
Cc1ccc(OCCOCCOc2ccc(Br)cc2/C=c2\sc3nc4ccccc4n3c2=O)cc1 | 4.5
CCOC(=O)c1sc(NC(=O)c2cc(Cl)ccc2OC)nc1C | -8.7
CC(C)=CC1C(C(=O)Nc2ccc(Br)cn2)C1(C)C (stereo not given) | -9.3
CN(C)/C(=N\S(=O)(=O)c1ccc(Br)cc1)c1ccccc1 | 96.8
Cc1nnc(SCC(=O)N2c3cc(C)c(C)cc3-c3c(ssc3=S)C2(C)C)s1 | -9.2
COC(=O)/C(C#N)=C/c1c(OC)[nH]c2ccccc12 | 21.8
C=CCN1C(=O)/C(=C\c2c(OC)ccc3ccccc23)C(=O)NC1=S | -8
CCOC(=O)/C(C#N)=C/c1ccc(OCc2c(C)no[n+]2[O-])cc1 | -1.9
N/C(=N\N=C\c1ccccc1Cl)c1nonc1N | -12.9
CCOc1ccccc1N(CC(=O)NCC1CCCO1)S(=O)(=O)c1ccccc1 (stereo not given) | 2.2
O=C(Nc1ccccc1C(=O)Nc1ccc(Br)cc1)c1cccs1 | -1.4
Cc1ccc(NC(=O)c2c(-c3ccccc3Cl)noc2C)c(C)c1 | 13.2
CC(=O)C1=C(O)C(=O)N(CCN2CCNCC2)C1c1ccccc1Cl (stereo not given) | -9.5
COc1cc(/C=C2\C(=O)N(c3cccc(Cl)c3)N=C2C)cc(Cl)c1O | -10.1
CCOC(=O)C(=CNc1ccc(Cl)cc1Cl)C(=O)OCC | -5.8
COc1cc(Br)c(C2CC(=O)Nc3ccc4ccccc4c32)cc1OC (stereo not given) | -17.8
COC(=O)c1c(NC(=O)c2cccnc2)sc2c1C(C(=O)OC)CC2 (stereo not given) | -2.2
Cc1ccccc1-c1nc(Cc2ccccc2Cl)no1 | 9.5
COc1ccc(C2CC(c3ccc(C)cc3)=NN2C(C)=O)cc1OC (stereo not given) | 7.6
CC(=O)N/N=C/c1c[nH]c2ccccc12 | -1.5
C/C(=N/OCC(=O)Nc1oc(-c2ccccc2)c(-c2ccccc2)c1C#N)c1cccs1 | -8
